Data from PubChem BioAssay AID485313 (National Center for Advancing Translational Sciences (NCATS), 2010).
In all, about 320,000 compounds went through this assay and about 7,600 (2.4%) were called active. The inconclusive results got no clear call from the source; some entries with a clear call stand among them for comparison. The call rests on the fitted dose curve; in most records, active means well fitted activation curve with a large enough effect; inconclusive means small, poorly fitted or top-dose-only effect; inactive means no such curve, though single readings can be large or run the other way. A potency beside an inconclusive call is a rough fit, not a confirmed value.

Assay: qHTS Assay for NPC1 Promoter Activators; further: nearly all actives have a fitted effect of over 60% in size; on activation: % of control where 0% means no effect
Conditions: Huh7 NPC1 promoter luciferase reporter, 24 h; series mostly up to 9.22 µM; activation: at the top concentration
In short: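 Luciferase expression driven by the NPC1 promoter was measured in stably transfected Huh7 cells after a 24 h compound incubation, using a luciferase reagent and a luminescence read.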
Potency means the concentration at half of the fitted maximal effect; tags describe the fitted curve by direction and shape.

activation, inactive:
Oc1ccc(COc2cccc3ccccc23)c2cccnc12 -0.0244%, CCN(c1cccc(C)c1)S(=O)(=O)c1ccc(-c2ccc(=O)[nH]n2)o1 -0.46%, COc1ccc(/C=C/C(=O)OC(C)C(=O)c2ccccc2)cc1OC (stereo not drawn) 0.403%, CC(C)(C)N1CC(C(=O)Nc2ccc(C#N)cc2)CC1=O (stereo not drawn) -1.67%, O=C(c1ccco1)N1CCN(C(c2ccccc2)c2nnnn2Cc2cccs2)CC1 (stereo not drawn) 0.854%, CCC1=[N+](CC(=O)c2ccc(C)cc2)CCn2cccc21 26.9%, Cc1cc(O)c(C=Nc2cccc(Cl)c2)c(=O)o1 -2.4%, O=[N+]([O-])c1ccc(S(=O)(=O)Nc2nnc(C(F)(F)F)s2)cc1 0.996%, Cc1c(C(=O)N(C)C2CC(C)(C)NC(C)(C)C2)oc2c(F)cccc12 -0.219%, Cc1ccc(NC(=O)CN(C)C(=O)c2cccc(S(=O)(=O)NCc3ccco3)c2)cc1 -2.55%, O=C(COc1ccc2ccc(=O)oc2c1)NCCCN1CCCC1=O -5.67%, CCC(C(=O)O)N1C(=O)/C(=C/C(C)=C/c2ccccc2)SC1=S (stereo not drawn) -4.96%, COc1ccc(CCCc2nnc(SCC(=O)Nc3cc(C)c(C)cc3Br)o2)cc1 -1.57%, COc1ccc(N2CCN(c3ncccc3C#N)CC2)cc1 -4.19%, Cc1ccc(NC(=O)c2ccc(NC(=O)C3CCCCC3C(=O)O)cc2)cc1 (stereo not drawn) -3.3%, CCc1ccc(CNC(=O)c2ccc(NC(=O)C3=CSCCO3)cc2)cc1 1.83%, CCOc1cc(NC(=S)NCC2CCCO2)c(OCC)cc1NC(=O)c1ccc(OC)cc1 (stereo not drawn) -2.4%, CCOC(=O)c1c(NC(=S)N2CCCCC2)sc2c1CCN(C(=O)OCC)C2 -6.41%, COc1ccc(N(CC(C)C)S(=O)(=O)c2nnc(NC(=O)c3ccco3)s2)cc1 1.68%, O=C(Nc1ccnc(-c2cccnc2)n1)c1cccc(Cl)c1Cl 2.32%, COc1cc(NC(=O)c2ccccc2F)ccc1NC(=O)c1cc2ccccc2o1 -7.35%, O=C(O)COc1ccc(S(=O)(=O)NCCc2ccccc2)cc1 -1.66%, CN1CCN(Cc2cccc(Oc3ccc(Cl)cc3)c2)CC1 -5.08%

Potency, active:
COC(=O)c1cccc(C(=O)Nc2ccc(C)cc2)n1 3.55 µM, Cc1nnc(SCC(=O)c2cc(C)n(C3CC3)c2C)s1 2.24 µM, O=C1CN(c2ccccc2)C(=S)N1C(=O)c1ccc(Br)cc1 2.24 µM, c1ccc2[nH]c(SCC3CCCCO3)nc2c1 (stereo not drawn) 1.78 µM, O=C(/C=C/c1ccc2c(c1)OCCCO2)c1ccc2ccccc2c1O 3.16 µM, C=CCn1c2ccccc2c(=O)c2cc(C#CC[C@@H](C)O)ccc21 3.16 µM, O=C(c1ccccc1)c1cc(-c2ccccc2)on1 0.562 µM, O=C(Nc1cc(C(F)(F)F)ccc1Cl)c1cc2nc3c(c(C(F)(F)F)n2n1)CCCC3 3.16 µM, Cc1cc(Cl)c2oc(C(=O)N3CCN(c4cccc(C)n4)CC3)c(C)c2c1 3.55 µM, CC(C)c1ccc(Nc2nc(CC(=O)O)cs2)cc1 1.26 µM, Cc1cc2c(cc1C)CN(c1ccccc1)C2 1.12 µM, O=C(Nc1ccc2c(c1)OCO2)c1cnn2cccnc12 2.24 µM, CCOC(=O)c1cnc2c(ccc3ccccc32)c1N 1.58 µM, CC(=O)c1cccc(N/C=C\C(=O)c2ccc(C)cc2)c1 0.794 µM, COc1ccc(C2C=C(c3ccccc3)Nc3nnnn32)cc1 (stereo not drawn) 3.98 µM, CC(C)(C)CC(=O)Nc1nnc(CCc2ccccc2)s1 3.16 µM, COc1cc(OC)cc(C(=O)Nc2ccc3nc4n(c(=O)c3c2)CCCC4)c1 2.82 µM, CCSc1nnc(NC(=O)c2ccccc2)s1 3.55 µM, COCCn1c(C)cc(C(=O)COC(=O)c2n[nH]c3ccccc23)c1C 0.398 µM, CN(C)/C=C1\C(=O)N(c2ccc(Cl)cc2)CS1(=O)=O 3.16 µM, COc1cccc(C(=O)Nc2ccc3ccccc3c2)c1 3.16 µM, O=c1[nH]c(COc2ccc(Br)cc2Cl)nc2ccccc12 3.16 µM, O=C(COc1ccc(F)cc1Cl)NC1CCCCCC1 3.98 µM, Cc1nn(-c2ccccc2)c(Cl)c1/C=N/Nc1nc2ccccc2n1C 3.55 µM

Potency, inconclusive:
COc1ccc(Nc2nc3ccc(OC)cc3s2)cc1 3.16 µM [activator, partial curve], O=c1c2ccccc2nnn1COc1ccc(F)cc1Cl 3.16 µM [activator, partial curve], CC1CCc2c(sc3ncn(CCO)c(=O)c23)C1 (stereo not drawn) 2.51 µM [activator, partial curve], COc1ccc(-c2cc(-c3ccccc3)n[nH]2)c(O)c1 5.62 µM [activator, single point], Cc1ccc(-n2nnc(-c3cc4ccccc4nc3Cl)n2)cc1 4.47 µM [activator, partial curve], C/C(=N\NC(=O)c1ccccc1O)c1ccc(NC(=O)c2ccccc2)cc1 3.98 µM [activator, partial curve], CC1CCN(CCc2nc3cc(NC(=O)Nc4ccccc4)ccc3n2C)CC1 3.16 µM [activator, partial curve], Cc1c(C(=O)NCc2ccccn2)oc2ccccc12 2.51 µM [activator, partial curve], Nc1c(C(=O)c2ccc(Cl)cc2)oc2ccccc12 3.16 µM [activator, partial curve], COc1ccccc1OCCNC(=O)c1ccc(Br)cc1 3.16 µM [activator, partial curve], COc1ccc(-c2cc(COc3ccccc3)on2)cc1 3.55 µM [activator, partial curve], Cc1nc2c(ccc3nc(NC(=O)C4CC4)sc32)s1 3.98 µM [activator, single point], CN(C)c1ccc(N=Cc2nc(-c3ccccc3)oc2OC(=O)c2cccc(Cl)c2)cc1 3.16 µM [activator, partial curve], CC(=O)Nc1ccc(-c2ccc(NC(C)=O)c(O)c2)cc1O 2.24 µM [activator, partial curve], Cc1cc(C)cc(-n2ccnc2SCC(=O)O)c1 5.01 µM [activator, single point], CC(C)=C1C2CCC1C1C(=O)N(c3nc(-c4ccc(C(C)C)cc4)c(C)s3)C(=O)C21 (stereo not drawn) 1.12 µM [activator, single point], CCc1ccc(NCc2nc3ccccc3c(=O)[nH]2)cc1 3.55 µM [activator, partial curve], CC(=O)c1ccc(NC(=O)c2sc3nc4n(c(=O)c3c2C)CCCCC4)cc1 3.55 µM [activator, single point], Cc1csc(=N)n1-c1ccc(Cl)cc1 2.24 µM [activator, partial curve], CCOc1ncccc1C(=O)Nc1ccc(Cl)cc1 3.16 µM [activator, single point], COc1ccc(N2CCn3c2nc2c3c(=O)n(CCc3ccccc3)c(=O)n2C)cc1 3.55 µM [activator, single point], CC(=O)Nc1ccccc1C(=O)C(=O)Nc1cccc(C(=O)NC2CC2)c1 2.82 µM [activator, partial curve], CCN(CC)c1ccc(NC(=S)NC(=O)c2cccs2)cc1 3.16 µM [activator, partial curve], CCc1ccc(Nc2nc(C)cc(C)n2)cc1 3.16 µM [activator, partial curve], CCc1ccc2oc(C(=O)Nc3cccnc3)c(C)c2c1 0.501 µM [activator, full curve, poor fit], Cc1noc(C)c1C(=O)OCC(=O)c1cc(C)n(Cc2ccccc2Cl)c1C 3.55 µM [activator, partial curve], Cc1nc(SCc2ccccc2)nc2c1CCC2 3.16 µM [activator, single point], Cc1ccc2c(c1)-c1nc3ccccc3cc1C2=NC1CCCCC1 5.01 µM [activator, single point], NNc1nc2c(-c3cccc(C(F)(F)F)c3)nnn2c2ccccc12 6.31 µM [activator, single point], C=CCn1c(O)c(N=NC(=O)c2ccc3c(c2)OCO3)c2ccccc21 5.62 µM [activator, single point], Cn1c(O)c(C=Nc2ccc(Br)cc2)sc1=O 6.31 µM [activator, single point], COc1ccc(OCC(=O)Nc2nc3ccccc3[nH]2)cc1 3.16 µM [activator, single point], CC(C)(C)C(=O)Nc1nc2c(s1)CN(Cc1ccccc1)CC2 3.98 µM [activator, partial curve], N#CCC(=O)N/N=C\c1ccccc1OC/C=C/c1ccccc1 5.62 µM [activator, single point], COc1ccc(/C=C/C(=O)c2cc3c(cc2N)OCO3)cc1 5.62 µM [activator, single point], CCN(c1ccccc1)c1ncnc2c1cnn2-c1ccccc1 3.16 µM [activator, single point]
